# Source: the supplement of paper PMC11417369
# ± gives the standard deviation of the averaged measurements. The list shows a part of the results.
# Tested on: PfAP2-I AP2 domain 3 (GST-tagged)
# Assay: gcPBM binding intensity (ln(normalized median fluorescence intensity)); higher = stronger DNA binding
# Procedure, shortened: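 Each value is the highest Masliner-normalised natural-log median intensity across replicate spots of either orientation of a probe. The probes were primer-extended double-stranded 36-bp intergenic genomic sequences on an Agilent 4 × 180k array, alongside negative controls, exposed for 1 h to GST-tagged P. falciparum DNA-binding domains expressed in E. coli. Bound protein was picked up with Alexa488 anti-GST antibody and scanned at 488 nm.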
row,Sequence,gcPBM binding intensity (ln)
1,CAAAAAATTTGACGTAGTACTTAAAAAAAAAAAAAA [XGTACX_site4523],7.95 ± 0.54
2,ATTTGCTCACAAGAAGCACACAAAAAAAGAAAAAAA [CACACA_site9338],7.96 ± 0.42
3,ATGAATTATAAATATTCACACAATATTTTTCATATG [CACACA_site4484],7.67 ± 0.61
4,AGTGTGCTCAGCTTAGCACAAATTGGAATACCATGT [CACACA_negctrl_site367],8.31 ± 0.67
5,GAAAATGAAATCCTTGCATGTAAAATTAAAATAGAA [TGCATGCA_site569],7.67 ± 0.79
6,TTTTTTTCTTAAAGATGTACTTTTTAAAAATAATCT [XGTACX_site1429],7.87 ± 0.39
7,GTAGTAATAAATTAAAGTACAGAATATATTATACTA [XGTACX_site2809],7.67 ± 0.45
8,ACAAAACTTTTAAGAACACACAAAAATGTACTATCG [CACACA_site7245],7.56 ± 0.61
9,CATTTACATGCCAACATGCACTGAACAATCTTTATA [GTGCAC_site9797],8.61 ± 0.37
10,TACAAAAAAAAATAAAATACATATATATATATATAT [XGTACX_negctrl_site608],9.71 ± 0.12
11,CCCTATATAAATAGCTGTACATTTGAACATGTTCAG [XGTACX_site2187],7.84 ± 0.45
12,TTTTATGAATAATTATGTACATAACAAATGATATAT [XGTACX_site8318],7.98 ± 0.48
13,TTTACAGGAAAAAATACACACATTATTTTACCTTAT [CACACA_site2833],7.62 ± 0.45
14,ACATGCCAAAATCTAATACAATAATAATAAAAAAAA [XGTACX_negctrl_site160],7.5 ± 0.6
15,CAATAAAAATTAAAATGTACAAATAAATATAAATAT [XGTACX_site7265],7.63 ± 0.42
16,CAATAAATCGAAATCGTGCACGGACACATGCAGTAG,10.4 ± 0.56
17,ATATATATAATAAGTGGTACAAGTTATTCATTAAAT [XGTACX_site7063],8.14 ± 0.42
18,GGTTCATTTATATGGAGTACAAAAAATATGTATATA [XGTACX_site8209],7.93 ± 0.37
19,AAATAATATAAATACACACACACATATATAAATACA [CACACA_site4465],7.79 ± 0.59
20,TAAAGTTATATATTATGTACATATTTGTATACATTT [XGTACX_site2516],7.66 ± 0.35
21,TTTTTTTATACAATTTTATATATTAAATATTATAAT [CACACA_negctrl_site226],7.62 ± 0.52
22,AAAGAAAACGGACTTTGTACTTAAATATAATATAAA [XGTACX_site8585],7.69 ± 0.34

row,Sequence,gcPBM binding intensity (ln)
1,AAATATAGTATTAAAACACACATTTATATAAAAAGG [CACACA_site1482],7.72 ± 0.53
2,TGAACTCATAGGAAAACACACATATGTGTAATATAT [CACACA_site4267],7.95 ± 0.61
3,AACAAAAAAACAAACACACACACACGCATATTTATA [CACACA_site7680],7.8 ± 0.46
4,AAAAACAACACAGATAAATTAACACACACACACATA [XGTACX_negctrl_site588],8.51 ± 0.16
5,TTATGTGATTTTAATTGTACATAAATATTTGTTAAC [XGTACX_site3489],7.82 ± 0.23
6,TATATACTCAGACATACACACAAATAAAAAAACACC [CACACA_site5820],8.97 ± 0.11
7,CACGCATACAGACACACACACACACGGATATAAATA [CACACA_site6445],8.09 ± 0.33
8,TATTTGTATAAATAAAAATAATATATATCAAATAAC [CACACA_negctrl_site218],7.57 ± 0.55
9,AACACCCACAGACACACACACAAAAATGATTAAAAA [CACACA_site2433],8.11 ± 0.13
10,ACAAAAATATTATATTGTACATTATTAGTTCATATT [XGTACX_site6750],7.58 ± 0.4
11,TTTTTATATAAATAATGTACATTTGGTTTTATTATA [XGTACX_site2125],7.76 ± 0.43
12,AAAAAAAAAAAACACACACACACACCGAAATATATA [CACACA_site4261],7.82 ± 0.33
13,TTCAGCATAAACACTTGTACATATATACTAAAAATT [XGTACX_site7272],7.91 ± 0.4
14,AATTTTTTTTTTTTTTTTTCTTTTGTAATAAACCAT [XGTACX_negctrl_site334],7.63 ± 0.36
15,ATTTCCCCAACGTGGGTGCATATATTTATGTGTGAA [GTGCAC_site9439],10.9 ± 0.82
16,ATTATATTTTTAAGTACACACATATAAATAAATATA [CACACA_site7682],8.11 ± 0.19
17,TATTAATTATTTTACTGTACTAATAATACTTTTATT [XGTACX_site2179],7.93 ± 0.39
18,ATTATGTGAGGTAACTAAATATGTACGTAACGAAGA [CACACA_negctrl_site1400],8.27 ± 0.28
19,ATATATATATATGTGTGTACTTAAAAATATAATGCA [XGTACX_site7753],9.55 ± 0.085
20,TAATGTATAATTAATCGTACATTAGATTGTTGTGTT [XGTACX_site52],7.58 ± 0.23
21,ATATATATATATTATACACACGCCGAAAAAATAAAA [CACACA_site1551],8.94 ± 0.11
22,TTTATTTTATCTAAAAGTACTTAAATTAGTGTATTT [XGTACX_site5696],7.58 ± 0.39

row,Sequence,gcPBM binding intensity (ln)
1,TTACGAAAAAACAAGAGTACATGATGTTATAAAATA [XGTACX_site1412],8 ± 0.57
2,CGTTGTAGGGAATGTAGTACAGTTATTATTTTATTA [XGTACX_site2429],7.88 ± 0.24
3,TATATATATAAATACACACACACACCGATATATATA [CACACA_site5408],8.59 ± 0.43
4,TCATACATTTTCAGCCTGCACTTATATTTAATAATA [GTGCAC_site9863],8.73 ± 0.61
5,TATCAAATCCAAAGGGGTACATTTTGTTGTCCTAAT [XGTACX_site5575],7.75 ± 0.4
6,TAGCTCGTTCGGAGCACACACATATAAATAAATATA [CACACA_site7002],7.67 ± 0.31
7,AATACTCTATTTTATAGTACATATATTATTAATCAC [XGTACX_site6622],7.71 ± 0.35
8,GAAAAAAAAAAAAATACACACAAATTGGTATATAAT [CACACA_site4369],7.47 ± 0.54
9,TAGGGATTATACCACACACACATACCCATAAATATA [CACACA_site5719],7.87 ± 0.31
10,ATAGACAGCGCACAAACACACAAACACGCACGCACA [CACACA_site6349],9.3 ± 0.071
11,TGTTTTTTATTTAATTGTACGAATTAAAAAAAATAA [XGTACX_site3009],7.86 ± 0.42
12,TTCCAACCATAGTATTCACACATTGTTTTATTCCAT [CACACA_site4927],8.05 ± 0.4
13,TTTTTACTAATAAGATGTACATATATCCTAAGCATA [XGTACX_site251],7.92 ± 0.64
14,TTTCGTAAACAAATTTGTACGTACAAATTTATAAAT [XGTACX_site8175],8.34 ± 0.13
15,ATAATATAATAAACGTGTACACAATTAAATTATTAT [XGTACX_site3491],8.21 ± 0.45
16,TACATACATACATACACACATACATATATATATATA [CACACA_site1387],9.33 ± 0.31
17,TCTTTTATTAGTAAAAGTACTTATATAAATATTATA [XGTACX_site5099],7.6 ± 0.21
18,TAAGGAAAAAATTATAGTACATAATAAATGTATATA [XGTACX_site8328],7.58 ± 0.38
19,ATAAATATATTTCACGCACACACACCCCAAATAAAT [CACACA_site9272],8.74 ± 0.42
20,CAAATTTTTTATTAAACACACAAACATATATTTATA [CACACA_site6992],7.48 ± 0.44
21,AAAAAAGAAAAGAAATCATGAAAGAATCAAATAAAG [CACACA_negctrl_site1771],7.53 ± 0.45
22,TTTTTATATATATTCTCACACACTTTTTATTTTAAC [CACACA_site657],7.97 ± 0.64

row,Sequence,gcPBM binding intensity (ln)
1,CATAATATATTTTATGCATGCAAAGCAACCTTTTGA [TGCATGCA_site715],7.83 ± 0.81
2,TTTTTTGTTATATTTGTGCGCAAAAATTGCTGCTTG,8.62 ± 0.72
3,TATTAACAAAATTTTTAACACACAAAAAAAAAAAAA [CACACA_site8542],8.04 ± 0.73
4,TATTTATTTAAAGGCACACATATTTTTATACTTTCT [CACACA_site3163],8.73 ± 0.21
5,ATTATATATATATATAAACACACATAAATATAAATA [CACACA_site8291],7.53 ± 0.48
6,AAAATTTATGTAAAATGTACATACATAAATAAAGAT [XGTACX_site4339],8.08 ± 0.68
7,TTTGTAAAATAATATCTTTCATGTCCTTACTAATTA [GTGCAC_negctrl_site145],7.33 ± 0.59
8,TAAAAGTTATAAGAGTGTACGTATATTTATATATCA [XGTACX_site2972],7.85 ± 0.34
9,TTATTATATTCTCCTTCACACACAAAAATATTTCAT [CACACA_site8738],8.12 ± 0.52
10,TGAAAAATTACAAAAATAATAAAATGAAATAATAAA [GTGCAC_negctrl_site53],7.54 ± 0.33
11,TTTTAATAACCAATCCGTACATATAATCTTTATATT [XGTACX_site536],8 ± 0.028
12,TGGAAAAATAGGCACACACACATATATACATATATA [CACACA_site1297],7.96 ± 0.35
13,AGGACTAATATTTGAACACACATATAACATATACAT [CACACA_site7803],7.78 ± 0.67
14,AACTATAAATATAAATGTACACATATGTAATATATA [XGTACX_site6085],7.74 ± 0.34
15,CTTTTAAATTATTTTTGTACATAATTATATATATAT [XGTACX_site4128],8.77 ± 0.17
16,TACTGTTTAAAATATAAACACACATTGTTTGCTTTA [CACACA_site8358],7.76 ± 0.38
17,AAAAGGAAAATTTTCTTAGTAACTGCATTAAGAGAT [GTGCAC_negctrl_site675],9.37 ± 0.13
18,AAGTATAACCTTTATAATAATGACATGACCGATTTT [CACACA_negctrl_site395],7.46 ± 0.55
19,AAGCATATTATAAACACACACTGTATAAAGATATAT [CACACA_site6277],7.66 ± 0.67
20,ATATAACGAATAATTACACACTATAAAAAAAGATCT [CACACA_site2862],7.68 ± 0.69
21,TATAACCGAATGTGTACACAAAATAATGTTATATAT [CACACA_site5627],8.48 ± 0.099
22,ATAATACGAATTTGTAGTACATTTATAATAACATGA [XGTACX_site2614],7.91 ± 0.2
